Measured values published in paper PMC4480820, “Modafinil and its metabolites enhance the anticonvulsant action of classical antiepileptic drugs in the mouse maximal electroshock-induced seizure model” (Psychopharmacology, 2015).

Tested on: threshold for electroconvulsions in mice
Assay: Maximal electroshock seizure threshold (MEST) test
Details: 30 min before electroconvulsions, ± S.E.M.

Row | Structure (SMILES) | CS50 (median current strength producing tonic hind limb extension in 50 % of animals) (12.5 mg kg^−1 i.p.) [mA] | CS50 (median current strength producing tonic hind limb extension in 50 % of animals) (25 mg kg^−1 i.p.) [mA] | CS50 (median current strength producing tonic hind limb extension in 50 % of animals) (50 mg kg^−1 i.p.) [mA] | CS50 (median current strength producing tonic hind limb extension in 50 % of animals) (75 mg kg^−1 i.p.) [mA] | CS50 (median current strength producing tonic hind limb extension in 50 % of animals) (75 mg kg^−1 i.p., listed as acid metabolite) [mA] | CS50 (median current strength producing tonic hind limb extension in 50 % of animals) (6.25 mg kg^−1 i.p.) [mA] | CS50 (median current strength producing tonic hind limb extension in 50 % of animals) (50 mg kg^−1 i.p., listed as GBR 12909) [mA] | CS50 (median current strength producing tonic hind limb extension in 50 % of animals) (75 mg kg^−1 i.p., listed as modafinil) [mA] | CS50 (median current strength producing tonic hind limb extension in 50 % of animals) (75 mg kg^−1 i.p., listed as sulfone metabolite) [mA]
1 | O=C(O)CSC(c1ccccc1)c1ccccc1 [ACID, diphenylmethylthioacetic acid] | 6.42 ± 0.50 | 6.96 ± 0.48 | 7.67 ± 0.72 | 8.98 ± 0.45 | 8.98 ± 0.45 |  |  |  | 
2 | Fc1ccc(C(OCCN2CCN(CCCc3ccccc3)CC2)c2ccc(F)cc2)cc1 [GBR] | 7.52 ± 0.55 | 7.93 ± 0.62 | 9.12 ± 0.45 |  |  | 7.02 ± 0.48 | 9.12 ± 0.45 |  | 
3 | NC(=O)C[S+]([O-])C(c1ccccc1)c1ccccc1 (centres unmarked) [MOD, diphenylmethylsulfinylacetamide] | 5.95 ± 0.44 | 6.29 ± 0.48 | 7.52 ± 0.54 | 8.29 ± 0.48 |  |  |  | 8.29 ± 0.48 | 
4 | NC(=O)CS(=O)(=O)C(c1ccccc1)c1ccccc1 [SULF, diphenylmethylsufonylacetamide] | 6.50 ± 0.52 | 6.92 ± 0.40 | 7.53 ± 0.48 | 9.04 ± 0.47 |  |  |  |  | 9.04 ± 0.47
